From US20180335433A1 (LA JOLLA INSTITUTE FOR ALLERGY AND IMMUNOLOGY, published 2018)

Biological target: PKCθ P331/4A (two internal Pro residues of the PR motif mutated to alanine) (human, UniProt Q04759 1-706)
Experiment: anti-CD28 co-IP, stimulated transduced PKCθ-/- T cells (FIG. 4c)

B1: CD28, endogenous in primary mouse CD4+ T cells (receptor)
chain: not shown
notes: whole, on cells; Immunoprecipitated with anti-CD28 mAb from lysates of retrovirally transduced mouse T cells; also called murine CD28
binding result: no binding
